Measurements taken from ChEMBL document CHEMBL1201862, “PubChem BioAssay data set” (2004).

Each molecule was assayed on NCI-H322M (assay: growth of human tumour cells (NCI), 48 h).
For O=C(c1ccccc1)c1ccc(COc2ccc(C(c3c(O)c4ccccc4oc3=O)c3c(O)c4ccccc4oc3=O)cc2)cc1, the GI50 was inactive: 17.7 µM. With Cc1cc(NS(=O)(=O)c2ccc(NC(=O)c3ccc4nc5ccccc5c(Nc5ccc(S(N)(=O)=O)cc5)c4c3)cc2)no1 the GI50 was inactive: 44.7 µM. COC(=O)C1CC23C=CCN4CC(C2C)C2(c5ccccc5NC12)C43 (stereo not drawn) was tested, and the GI50 was inactive: > 100 µM. COc1ccc(CNC2=N/C(=C\c3ccccc3Cl)C(=O)N2C)cc1 was tested, and the GI50 was inactive: 35.8 µM. For CC1=C(C(=O)NNC(=O)C[N+](C)(C)C)CC(C(=O)NNC(=O)C[N+](C)(C)C)=C(C)N1, the GI50 was inactive: > 100 µM. COc1cc(C2c3cc(OC)c(OC)c(O)c3C(=O)C3CCC(=O)N32)cc(OC)c1OC (stereo not drawn) was tested, and the GI50 was inactive: > 100 µM. With N#Cc1c(NC(=S)NCc2ccccc2)sc2c1CCN(N1CCc3c(sc(NC(=S)NCc4ccccc4)c3C#N)C1)C2 the GI50 was inactive: > 100 µM. In the case of CC(C)CNC(=O)Cn1c2c(c3ccccc31)CCCC2, the GI50 is reported as inactive: 35.7 µM. In the case of COc1ccc2c(c1)OCCC1=C2SCC2(C)CCN=C12 (stereo not drawn), the GI50 is reported as inactive: > 100 µM. For CS/C(=N\Nc1cnc2ccccc2n1)NS(=O)(=O)c1cc(C)c(Cl)cc1Cl, the GI50 was inactive: > 100 µM. For CCN1C[C@]2(C)CC[C@H](OCc3ccccc3)C34C5C[C@@H]6CC[C@](O)(C(C[C@@H]32)C14)C5[C@H]6OCc1ccccc1 (stereo partly drawn), the GI50 was inactive: > 100 µM. Cc1ccc(NCC2CC/C(=C\c3ccc(Cl)cc3)C2=O)cc1 (stereo not drawn) was tested, and the GI50 was inactive: 63.1 µM. With C/C(=N\O)c1ccc2ccc3ccccc3c2c1 the GI50 was inactive: 34.4 µM. C[C@@H]1O[C@@H](O[C@H]2CC[C@]3(C=O)[C@H]4CC[C@]5(C)[C@@H](c6ccc(=O)oc6)CC[C@]5(O)[C@@H]4CC[C@]3(O)C2)[C@H](O)[C@H](O)[C@H]1O[C@@H]1O[C@H](CO)[C@@H](O)[C@H](O)[C@H]1O [HELLEBRIN] was tested, and the GI50 was active: 0.0118 µM. In the case of CC(C)(C)OC(=O)N(CCCCNCc1ccc2ccccc2c1)CCCNCc1ccc2ccccc2c1, the GI50 is reported as inactive: 1.65 µM. In the case of CCCCC/C=C1\CCC(CN(C)C)C1=O (stereo not drawn), the GI50 is reported as inactive: 21.6 µM. In the case of COC(=O)[C@@H]1COC(=O)N1, the GI50 is reported as inactive: > 100 µM. With C=C(C=O)[C@@H]1C2OC(=O)C(=C)[C@@H]2CC(O)[C@@]1(C)CC (stereo partly drawn) the GI50 was inactive: 14.9 µM. FC1(F)[Se]C2C3CCC(C3)C2C1(F)F (stereo not drawn) was tested, and the GI50 was inactive: 65.5 µM. With CCN(CC)C(=S)SS(=O)(=O)c1ccccc1C(=O)O the GI50 was inactive: > 100 µM. O=c1[nH]nc(-c2ccccc2)n1/N=C/c1cccc([N+](=O)[O-])c1 was tested, and the GI50 was inactive: > 100 µM. For Cc1cc(Cl)ccc1NC(=O)/C(CC(=O)CC(c1ccccc1)c1c(O)c2ccccc2oc1=O)=N\O (stereo not drawn), the GI50 was inactive: > 100 µM. In the case of CCOc1ccc(-c2nc(-c3oc4ccccc4c(=O)c3OC(C)=O)cs2)cc1, the GI50 is reported as inactive: 3.81 µM. For CCCCN(CC)C(=O)C(=O)Cc1nc2ccc(C(=O)c3ccccc3)cc2nc1O, the GI50 was inactive: > 100 µM. With NC(=O)NC(=O)c1cccc(NC(=O)CCl)c1 the GI50 was inactive: 1.34 µM. For Nc1ccc2c(=O)cc(-c3ccc(Br)s3)[nH]c2n1, the GI50 was inactive: 5.61 µM. In the case of COC1(OC)CCN(Cc2ccccc2)C1=O, the GI50 is reported as inactive: 27.1 µM. In the case of COC(=O)c1c(O)ccc2c1c1c(n2-c2ccc(OC)cc2)C(=O)c2ccccc2C1=O, the GI50 is reported as inactive: 18.8 µM. With COc1ccc2c(c1)/C(=C\c1c(C)nc3sc(C)cn13)C(=O)N2 the GI50 was active: 0.728 µM. For CCOC(=O)c1c(OCC)[nH]c(=O)c(C(c2ccc(F)cc2)c2c(O)c(C(=O)OCC)c(OCC)[nH]c2=O)c1O, the GI50 was inactive: 16.9 µM. In the case of NS(=O)(=O)c1ccc(Nc2c3ccccc3nc3c(C(=O)N4CCN(CCO)CC4)cccc23)cc1, the GI50 is reported as inactive: > 100 µM. With COP(=O)(OC)/C(=C/c1cn(C(c2ccccc2)(c2ccccc2)c2ccccc2)cn1)NC=O the GI50 was inactive: 26.1 µM. In the case of O=[N+]([O-])C(Cl)=C/C(=C(\Cl)SCc1ccccc1)[N+](=O)[O-], the GI50 is reported as inactive: 33.3 µM. With C=C[C@]1(C)C[C@@H](OC(=O)CO)[C@@]2(C)[C@H](C)CC[C@]3(CCC(=O)[C@H]32)[C@@H](C)[C@@H]1O the GI50 was inactive: > 100 µM. CSc1nc(-c2ccccc2)c2c(n1)-c1ccccc1CC2 was tested, and the GI50 was inactive: > 100 µM. In the case of O=C(Cc1c(C(=O)Nc2ccccc2)sc(C(=O)Nc2ccccc2)c1CC(=O)Nc1ccccc1)Nc1ccccc1, the GI50 is reported as inactive: 2.28 µM. In the case of Cc1cc2c(cc1C)[n+]([O-])c(C(=O)CC(=O)C(=O)Nc1c(C(C)C)cccc1C(C)C)c(C)[n+]2[O-], the GI50 is reported as inactive: > 100 µM. For N#C/C(=C/n1c(=S)[nH]c2ccc([N+](=O)[O-])cc21)C(N)=O, the GI50 was inactive: > 100 µM. In the case of [N-]=[N+]=NC1C(O)C(CO)OC1n1ccc(N)nc1=O (stereo not drawn), the GI50 is reported as inactive: 67.9 µM. COc1ccc2c(-c3cc4ccccc4o3)cc(=O)oc2c1 was tested, and the GI50 was inactive: 38.7 µM. With COc1ccc(C(=O)O)c(Br)c1OCc1ccccc1 the GI50 was inactive: 95.7 µM. In the case of c1cnn(CN(Cn2cccn2)Cn2cccn2)c1, the GI50 is reported as inactive: > 100 µM. With COc1ccc(O)cc1C(O)c1ccccc1 (stereo not drawn) the GI50 was inactive: > 100 µM. CCOC(=O)c1c(CN2CCNCC2)nc2ccc(Cl)cc2c1-c1ccccc1 was tested, and the GI50 was inactive: 16.3 µM. With CC(=O)Nc1ccc2[nH]c(C(=O)N3CC(CCl)c4c3cc([N+](=O)[O-])c3ccccc43)cc2c1 (stereo not drawn) the GI50 was inactive: 4.31 µM. In the case of Cc1c2c(Cl)c3c(c(Cl)c2c(C)c2c(Cl)c4c(c(Cl)c12)C(c1ccccc1)(c1ccccc1)C4(c1ccccc1)c1ccccc1)C(c1ccccc1)(c1ccccc1)C3(c1ccccc1)c1ccccc1, the GI50 is reported as inactive: > 100 µM. With COC(=O)N/N=C(/c1nc2ccc([N+](=O)[O-])cc2nc1O)C(O)c1ccc(OC)c(OC)c1 (stereo not drawn) the GI50 was inactive: > 100 µM. In the case of CC(C)c1cc(Cl)nc(Cl)n1, the GI50 is reported as inactive: > 100 µM. For C=C1COC(/C=C(\C)CC/C=C(\C)CCl)C1 (stereo not drawn), the GI50 was inactive: > 100 µM. With NCCCN1c2ccccc2Sc2ccc(Cl)cc21 the GI50 was inactive: 4.17 µM. In the case of Cn1c2c(c3ccccc31)CCN(CCCCN1CCN(c3ccccc3)CC1)C2=O, the GI50 is reported as inactive: 27.2 µM. N#CSc1ccc(S(N)(=O)=O)cc1 was tested, and the GI50 was inactive: > 100 µM. In the case of CCOC(=O)c1oc2c(OC)ccc3c2c1CCC3, the GI50 is reported as inactive: > 100 µM. With CC(C)CCC[C@@H](C)[C@H]1CCC2C3CC=C4C[C@@H](Oc5c6ccccc6nc6ccccc56)CCC4C3CCC21 (stereo partly drawn) the GI50 was inactive: > 50 µM. CSc1nc(=O)n(CCC#N)nc1SC was tested, and the GI50 was inactive: > 100 µM. In the case of COc1ccc(C2OCCN2C)cc1 (stereo not drawn), the GI50 is reported as inactive: > 100 µM. In the case of CCOC(=O)C1(Cc2ccccc2)CCN(C(=O)c2ccccc2)C2C1C2(Cl)Cl (stereo not drawn), the GI50 is reported as inactive: 28.1 µM. For O=C(O)c1ccccc1[Se][Se]c1ccccc1C(=O)O, the GI50 was inactive: 29.1 µM. O=S(=O)(c1ccccc1)[C@H]1[C@@H]2O[C@@H]2C[C@@H]1O was tested, and the GI50 was inactive: > 100 µM. COC(=O)c1c(-c2ccccc2)cc2c3cc(-c4ccccc4)c(C(=O)OC)n3c3ccccc3n12 was tested, and the GI50 was inactive: > 100 µM. With CSC1=N/C(=C\c2cccs2)C(=O)N1CN1CCOCC1 the GI50 was inactive: > 100 µM. For N#CCN(CC#N)C1CC=CCC1N(CC#N)CC#N (stereo not drawn), the GI50 was inactive: > 100 µM. For CCOC(=O)CC1(O)CCCCC1(Sc1ccc(C)cc1)Sc1ccc(C)cc1 (stereo not drawn), the GI50 was inactive: 70.6 µM. COc1ccc(/N=N/c2c(N)nn(C)c2N)cc1 was tested, and the GI50 was inactive: > 100 µM. For N#Cc1c(-c2ccc(Cl)cc2)cc(-c2ccc(Nc3ccnc4cc(Cl)ccc34)cc2)nc1N, the GI50 was inactive: > 100 µM. CO[C@@H]1C[C@H]2[C@@H]3CC[C@H]([C@@H](C)COC(C)=O)[C@@]3(C)CC[C@@H]2[C@@]2(C)CC[C@H]3C[C@]312 was tested, and the GI50 was inactive: 18.9 µM. With NCCC(=O)NC(Cc1c[nH]cn1)C(=O)O (stereo not drawn) the GI50 was inactive: > 100 µM. For Nc1c(C(=O)c2ccc(Cl)c(Cl)c2)[nH]c(NCc2ccccc2)c1C(=S)Nc1ccccc1, the GI50 was inactive: 5.15 µM. In the case of O=C(CC1(O)C(=O)Nc2c(Cl)cc(Cl)cc21)c1ccc(Br)cc1 (stereo not drawn), the GI50 is reported as inactive: 16.3 µM. In the case of S=C(N/N=C(\C(=N/NC(=S)N1CCCCC1)c1ccccn1)c1ccccn1)N1CCCCC1, the GI50 is reported as inactive: 35.7 µM. For Cc1ccc2oc(=O)c3c(O)c4cccc(OC5OC(C)C6O[C@@H](c7ccccc7)OC6C5OC5OC(C)C(O)C(O)C5O)c4c4oc(=O)c1c2c34 (stereo partly drawn), the GI50 was active: 0.136 µM. For Cc1cc2c(C)n(Cc3ccc(Cl)cc3Cl)nc2c(C(=O)O)c1C, the GI50 was inactive: > 100 µM. In the case of O=c1[nH]c2cc(C(F)(F)F)ccc2nc1Cc1ccccc1, the GI50 is reported as inactive: > 100 µM. For CC(C)(C)N1C(=O)c2ccccc2C1(O)C(F)(F)F (stereo not drawn), the GI50 was inactive: > 100 µM. In the case of COc1ccc2c(c1)CCc1c(-c3noc4c3CCc3cc(OC)ccc3-4)noc1-2, the GI50 is reported as inactive: > 100 µM. In the case of COC(=O)C1[C@H](c2ccc3c(c2)OCO3)OC(=O)[C@]1(C(=O)OC)C(=O)c1ccc(OC)c(OC)c1 (stereo partly drawn), the GI50 is reported as inactive: > 100 µM. In the case of COc1ncnc2c(Cl)c(C(O)c3ccccc3)c(Cl)cc12 (stereo not drawn), the GI50 is reported as inactive: 38.7 µM. For CC(C)(O)CCc1ccc(O)c2c(=O)c3c(O)c4c(cc3oc12)O[C@H]1OC=C[C@@]41O [AUSTOCYSTIN D], the GI50 was active: < 0.01 µM. For CC(=O)c1ccccc1NC(=O)C(=O)C(C(=O)c1ccccc1-c1ccccc1)C1OC(=O)c2ccccc21 (stereo not drawn), the GI50 was inactive: 22.5 µM. COc1ccc2c3c(c(C(=O)O)oc13)CCC2 was tested, and the GI50 was inactive: > 100 µM. With CN1C(=O)CC2(C)c3cc(O)ccc3N(C)C12 (stereo not drawn) the GI50 was inactive: 38.1 µM. In the case of CNC(=O)CN(CC(N)=O)C(N)=O, the GI50 is reported as inactive: > 100 µM. For Cc1cc(C(C)(C)C)cc(CNC2CCCCC2)c1O, the GI50 was inactive: 18.1 µM. In the case of COc1ccc(CNc2nc(NCc3ccc(OC)cc3)nc(NC3CCCCC3)n2)cc1, the GI50 is reported as active: 1.03 µM. With OC1CSCCCSCCSCCCSC1 the GI50 was inactive: > 100 µM. For c1cc2c(cc1NC1=NCCO1)OCO2, the GI50 was inactive: > 100 µM. With O=c1nc(NC(c2ccccc2)(c2ccccc2)c2ccccc2)ccn1CCO the GI50 was inactive: > 100 µM. Cn1cc2ccccc2c1-c1nc(F)nc(OCC(=O)[C@H]2CCC3[C@@H]4CCC5=CC(=O)CC[C@]5(C)C4[C@@H](O)C[C@@]32C)n1 (stereo partly drawn) was tested, and the GI50 was inactive: 18.8 µM.

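48-hour exposure; five concentrations; linearly interpolated endpoints. Abbreviation: GI50, concentration required for 50% inhibition of growth.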 Activity calls are given as the source filed them. Cut-off read from the data, not from the text of the source: active = GI50 up to about 1.1 µM and inactive = higher.
